Measured values from PubChem BioAssay AID1240 (Sanford-Burnham Center for Chemical Genomics, 2008).
Out of some 50,000 compounds screened, about 800 (1.6%) showed an effect of 50% or more. This is one part of the list.

Target: Bcl-2-like protein 10 (Homo sapiens) (UniProt Q9HD36)
Assay: Phenotype converters, Bcl-B/TR3 peptide binding displacement, primary biochemical FP (AID 1240);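 further: 0% = Bcl-B with tracer peptide and DMSO and 100% = tracer peptide lacking Bcl-B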
Conditions: GST-Bcl-B / FITC-TR3 peptide fluorescence polarization; stronger effect = higher value; compound at 3.75 mg/L

Sequence of UniProt Q9HD36 (Q9HD36 whole entry, looked up): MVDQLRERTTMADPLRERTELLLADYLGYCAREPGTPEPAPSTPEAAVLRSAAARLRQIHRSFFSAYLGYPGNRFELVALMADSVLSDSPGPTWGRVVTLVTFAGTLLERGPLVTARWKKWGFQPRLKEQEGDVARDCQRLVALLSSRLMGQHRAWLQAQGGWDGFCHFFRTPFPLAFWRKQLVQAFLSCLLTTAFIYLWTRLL

| Structure (SMILES) | displacement |
| --- | --- |
| CCN(CC)CCCCCOc1ccccc1C | -4.1% |
| CCN(CC)CCCNC(=O)Cn1cnc2c1c(=O)n(C)c(=O)n2C | -12% |
| O=C(Nc1ccc2c(c1)OCCO2)C(F)(F)F | 5.6% |
| CC(=O)c1ccc(NC(=O)Cc2ccc(F)cc2)cc1 | -0.2% |
| CCN1C(=O)CSC1=Nc1ccc(Cl)c(Cl)c1 | -4.7% |
| O=C1/C(=C/c2ccc(I)o2)SC(=S)N1c1cccc(C(F)(F)F)c1 | 55.7% |
| O=C(/C=C\c1ccc2c(c1)OCO2)c1ccc(Cl)cc1 | -1.8% |
| CC(=O)Nc1sc2c(c1C#N)CCCC2 | 10.9% |
| O=C(O)c1cc(-c2ccc(/C=N/Nc3ccc(Cl)c(Cl)c3)o2)ccc1Cl | 12.1% |
| CCCCN(C)Cc1c(C)[nH]c2c(Cl)cccc2c1=O | -9.6% |
| Cc1ccccc1OCCOc1ccc(/C=C2/C(=N)N3N=C(C(C)C)SC3=NC2=O)cc1 | 9.2% |
| CC1CN(C)C(C)C/C1=N/OC(=O)COc1ccc(Cl)cc1 (configuration not stated) | -2.6% |
| O=C(/C=C/c1ccccc1)Nc1ccc([N+](=O)[O-])cc1 | 15.6% |
| Cc1ccc(C(O)(C(=O)NCc2ccc(N(C)C)cc2)c2ccc(C)cc2)cc1 | 13.5% |
| CCc1ccc(NC(=O)C(=O)NC2CC(C)(C)NC(C)(C)C2)cc1 | 10.4% |
| O=C(COc1ccc(Cl)cc1)N1CCN(c2cccc(Cl)c2)CC1 | -9.9% |
| CCOc1ccccc1N1CCN(C(=O)c2cccc(Cl)c2)CC1 | -11.7% |
| CCCN=C(C)c1c(C)[nH]n(-c2nc3ccccc3s2)c1=O | 68.8% |
| COc1ccc(N(CC(=O)N2CCCC2)S(C)(=O)=O)c(OC)c1 | 2.8% |
| O=C(O)c1ccc(OCc2ccoc2C(=O)O)cc1 | 3.2% |
| O=C(Nc1ccc(-c2nnc(-c3ccccc3)o2)cc1)C(c1ccccc1)c1ccccc1 | 16.7% |
| Cc1sc2nc(NC(=O)c3ccccc3)sc(=O)c2c1C | -5.9% |
| CC(Oc1ccccc1)C(=O)NCCN1CCOCC1 (configuration not stated) | 2.2% |

| Structure (SMILES) | displacement |
| --- | --- |
| COc1cc(NC(=O)c2ccccc2Br)ccc1NC(=O)c1cc2ccccc2o1 | 6.5% |
| COc1ccc(C2=C/C(=C/c3ccc([N+](=O)[O-])o3)C(=O)O2)c(OC)c1 | -28.4% |
| CCOC(=O)c1c(C)[nH]c(N=Nc2cccc([N+](=O)[O-])c2)c1C | 8.6% |
| O=C1CCCC(O)=C1C=NCc1cccnc1 | 23.3% |
| COc1ccc(C2C(C(C)=O)=C(O)C(=O)N2c2ccccn2)cc1 (configuration not stated) | -10.8% |
| Cc1cc(NCc2ccc3c(c2)OCO3)ccc1Br | 6.3% |
| COCCN1C(=O)C(=O)/C(=C(/O)c2ccccc2)C1c1ccccc1Cl (configuration not stated) | -17.1% |
| O=C1c2ccccc2C(=O)c2c1c(Cl)c(Cl)c(Cl)c2N1CCOCC1 | -5.7% |
| O=C(/C=C/c1ccc(F)cc1)Nc1cccc(Cl)c1Cl | 17.9% |
| CC(=O)N/N=C/c1cc(C)n(-c2cccc(Cl)c2Cl)c1C | -0.7% |
| Cc1onc(-c2ccccc2Cl)c1C(=O)Nc1ccc(S(=O)(=O)Nc2ncccn2)cc1 | 9.1% |
| CCOc1ccc(NC(=O)c2ccc(N3C(=O)c4cccnc4C3=O)cc2)cc1 | 14.1% |
| O=C(/C=C/c1ccc(-c2ccc(Cl)cc2)o1)Nc1cccnc1 | 14.7% |
| Cc1ccc(/C=C(\C#N)c2nc(-c3ccc4c(c3)OCO4)cs2)o1 | -60.3% |
| O=c1[nH]n(-c2cccc(Cl)c2)c(O)c1/C=C1/C=Nc2ccccc21 | 10% |
| CC(=O)c1ccc(NC(=O)CSc2nc(C)cc(C)n2)cc1 | -6.6% |
| COc1cc(NC(=O)c2ccc(-c3ccccc3[N+](=O)[O-])o2)ccc1NC(=O)c1ccco1 | 7.1% |
| CC(=O)CC1(O)C(=O)N(Cc2ccc3c(c2)OCO3)c2ccccc21 (configuration not stated) | -1.2% |
| COc1ccc(C(=O)Oc2cccc3cccnc23)cc1Cl | 16.6% |
| Cc1ccc(N2C(=O)CC(NCc3cccnc3)C2=O)cc1 (configuration not stated) | 2.3% |
| Cc1ccc(C23CC4CC(CC(NC(=O)Nc5ccccn5)(C4)C2)C3)cc1 | -7% |
| O=C1CNC(=O)/C1=C/c1ccc(Br)cc1 | 17.7% |
| Cc1cccc(C)c1NC(=O)CSc1nc2ccc(NC(=O)CSc3nccn3C)cc2s1 | -8.5% |

| Structure (SMILES) | displacement |
| --- | --- |
| CCOC(=O)c1ccccc1NC(=O)COc1ccc(C)c(C)c1 | -8.6% |
| COc1ccccc1Cc1noc(COc2ccc3ccccc3c2)n1 | -2.2% |
| O=C(CSc1nnc(-c2cccc(Cl)c2)n1-c1ccccc1)NCc1ccccc1 | -17.5% |
| Cc1cc(C)n(CC(O)COCc2ccccc2)n1 (configuration not stated) | -3.8% |
| COc1ccc(C(NC(=O)CN(c2cccc(Cl)c2)S(=O)(=O)c2ccccc2)c2ccccc2)cc1 (configuration not stated) | -4.3% |
| Cc1ccc(C(NC(N)=O)c2ccccc2)cc1C (configuration not stated) | 5.7% |
| CC(Oc1ccccc1)C(=O)Nc1cc(C(N)=O)cc(C(N)=O)c1 (configuration not stated) | 1.2% |
| CCOc1ccccc1-n1c(O)c(C=C2C=CC=N2)c(=O)[nH]c1=O | 12.7% |
| COc1ccc(C=Nc2ccccc2Cl)c2ccccc12 | -1.7% |
| COc1ccc(N(CC(=O)N2CCN(c3ccccc3OC)CC2)S(=O)(=O)c2ccccc2)c(OC)c1 | 8.6% |
| O=C(Nc1nc(-c2ccc(Cl)cc2)cs1)c1ccc2c(c1)OCO2 | 13.6% |
| O=C(NCCCNc1ccc(C(F)(F)F)cc1[N+](=O)[O-])c1cc(F)c(F)cc1Cl | 12.3% |
| COc1cccc(C(=O)Nc2ccc(I)cc2Cl)c1 | 8.2% |
| Cc1ccc(OCC(=O)Nc2ccc(S(=O)(=O)Nc3onc(C)c3C)cc2)c(C)c1 | 0.6% |
| COc1cc(C2CC(=O)NC(SCc3ccccc3)=C2C#N)cc(Br)c1O (configuration not stated) | -3.6% |
| CC(C)NC(=O)NCC12CC3CC(C1)CC(CNC(=O)NC(C)C)(C3)C2 | -15.5% |
| CC(C)(C)c1cc(N2C(=O)C(=O)/C(=C(\O)c3ccccc3)C2c2cccc([N+](=O)[O-])c2)no1 (configuration not stated) | -10.8% |
| Cc1ccc(/C=C/C(=O)Nc2cccc([N+](=O)[O-])c2)o1 | 10.1% |
| Cc1ccc(C)c(N2C(=O)CC(Cc3ccc(Cl)cc3)C2=O)c1 (configuration not stated) | -16.4% |
| CC[n+]1c(/C=C/c2ccc([N+](=O)[O-])cc2)sc2ccccc21 | -3.4% |
| COc1ccc(C(N=C2NS(=O)(=O)c3cc([N+](=O)[O-])ccc32)c2ccccc2)cc1 (configuration not stated) | -0.4% |
| COc1ccc(C2(C(=O)Nc3ncccc3C)CCCC2)cc1OC | -2.7% |
| O=C1N/C(=C\c2ccc(O)cc2)C(O)=C1C=NCc1ccccc1 | -3.9% |

| Structure (SMILES) | displacement |
| --- | --- |
| Cc1cccc(OCC(=O)O/N=C(\N)c2ccc(Cl)cc2)c1 | 1.8% |
| Cc1ccc2[nH]c(C)c(CN3CCOCC3)c(=O)c2c1 | 9.4% |
| CN(Cc1ccccc1)C1CC(=O)N(c2ccc(F)cc2)C1=O (configuration not stated) | -6.6% |
| COc1ccccc1NC(=O)CSc1ncn[nH]1 | 2.5% |
| COc1ccc(/C=C2\SC(=O)N(c3c(C)n(C)n(-c4ccccc4)c3=O)C2=O)cc1OC | -2.5% |
| CCOC(=O)c1c(C)n(CCc2ccccc2)c2ccc(O)cc12 | 7.6% |
| C=CCn1c(=O)[nH]c(=O)n(CC=C)c1=O | 2.7% |
| O=C(N1CCN(C(=O)C23CC4CCC(CC(C4)C2)C3)CC1)C12CCC3CC(CC(C3)C1)C2 | 11.4% |
| CC1(C)Cc2ccccc2-c2nnnn21 | 11.1% |
| O=C(COc1ccccc1Cl)NCc1ccco1 | -5.5% |
| CCOC(=O)c1c(C)nn(C2CCCCC2)c1N | -3.3% |
| CCOC(=O)C1=C(C)S/C(=C\N(C)C)C1=O | 7.4% |
| CCOc1ccc2c(=O)c(-c3nc4ccccc4s3)coc2c1 | 7.8% |
| Cc1ccc2c(c1)c1c3n2CCN(C(C)c2ccccc2)C3CCC1 (configuration not stated) | -28.7% |
| CC1CN(c2ccc([N+](=O)[O-])cc2Cl)CCN1S(C)(=O)=O (configuration not stated) | -7.5% |
| O=c1oc2ccc(O)c(-c3ccccc3Cl)c2s1 | 15.5% |
| Cc1sc2ncn(/N=C/C=C3\N(C)c4ccccc4C3(C)C)c(=O)c2c1C | 75.7% |
| CSc1nnc2n(-c3ccccc3)c(=O)c3c4c(sc3n12)CC(C(C)(C)C)CC4 (configuration not stated) | 1.2% |
| CCN(CC)c1ccc(NC(=O)c2ccc3c(c2)OCCO3)cc1 | 14.9% |
| Cc1cc(OCC(=O)Nc2cccc(Cl)c2Cl)ccc1Br | 2.9% |
| Cc1cc([N+](=O)[O-])ccc1-c1ccc(/C=C2\SC(=O)N(c3cccc(Cl)c3)C2=O)o1 | 0.7% |
| O=C(NCc1ccc(Cl)cc1)c1ccc(C#Cc2ccccc2)cc1 | -4.5% |
| CCOc1ccc(NC(=O)CN(c2cccc(C(F)(F)F)c2)S(C)(=O)=O)cc1 | 2.8% |

| Structure (SMILES) | displacement |
| --- | --- |
| O=C1C=C(NCc2ccncc2)CC(c2ccccc2)C1 (configuration not stated) | 7.1% |
| O=C1c2ccccc2NC(c2ccco2)N1O (configuration not stated) | 0% |
| CCCN(CCC)CC(O)COC1CCC(C(C)(C)C)CC1 (configuration not stated) | -8.7% |
| O=C(N/N=C/c1cc([N+](=O)[O-])cc(Br)c1O)c1ccncc1 | 10.6% |
| Cc1cccc(NC(=O)c2cc3ccccc3oc2=O)n1 | 9.9% |
| CCCOc1ccc(-c2cc(C(=O)N3CCCCCC3)c3ccccc3n2)cc1 | -3.4% |
| CC(=O)NNC(=O)c1cccc(Cl)c1 | -9.1% |
| Cc1ccc(Cl)cc1N1C(=O)C2C3C=CC(CO)(O3)C2C1=O (configuration not stated) | -3.7% |
| O=C(/C=C/c1ccc(Cl)cc1Cl)Nc1nn[nH]n1 | -5% |
| Cc1ccccc1C(=O)Nc1ccccc1C(=O)N1CCCCC1 | 15.9% |
| CC1(C)C(C=C(Cl)Cl)C1C(=O)NC1CCCCC1 (configuration not stated) | 4% |
| COc1ccc(N(CC(=O)Nc2ccccc2)S(C)(=O)=O)cc1Cl | 3.3% |
| Cc1ccc(NCC(=O)N/N=C\c2cccc(OC(=O)c3ccco3)c2)cc1 | 7.1% |
| O=C(NCCc1ccccc1)c1nn2c(c1Br)NC(c1cccs1)CC2C(F)(F)F (configuration not stated) | 2.4% |
| O=C(Cc1ccc(Br)cc1)Nc1cc([N+](=O)[O-])ccc1Cl | 4.4% |
| COc1ccc(-n2c(O)c(C=Nc3ccc(Cl)cc3)c(=O)[nH]c2=O)cc1 | 14.3% |
| COc1ccc(NC2=NS(=O)(=O)c3cc([N+](=O)[O-])ccc32)cc1 | -7.5% |
| O=C(NC(=S)Nc1ccc([N+](=O)[O-])cc1Cl)c1ccco1 | 11.2% |
| C[n+]1ccc2c(c1)ncn2Cc1ccccc1 | -22.4% |
| Cc1cc(Cl)ccc1OCC(=O)Nc1ccc(F)c([N+](=O)[O-])c1 | 11.4% |
